# Sequences with one replicate were seen in a single cluster, so their values are uncertain.
# System: ATP
# Assay: switch fluorescence ratio, 500 uM ATP over buffer (Cy3 cluster intensity, sum of 5 cycles each) (fold (ratio)); higher = stronger signal-on switching upon ATP binding; sequences stand for … in TCGTCGGCAGCGTCAGATGTGTATAAGAGACAGTTTTTTTTTTTTTTTTTTTTTTTTT…TC
# Conditions: aptamer strand: ATP DNA aptamer (quencher-CACCTGGGGGAGTATTGCGGAGGAAGG + anchor), 100 nM annealed; ATP concentration: 500 uM; one replicate
# How it was run: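 Per cluster, summed Cy3 intensity from the target cycles was divided by that from the buffer cycles to give the fluorescence ratio, then averaged per switch-domain sequence. Clusters outside 100-1000 RFU were excluded. The Cy3-labelled switching-strand clusters, on a modified Illumina MiSeq flow-cell, were annealed to 100 nM quencher-labelled ATP aptamer and imaged in selection buffer, then after 15 min with 500 uM ATP at 22 °C, for five cycles with NaOH stripping and re-annealing between them.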
# 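Note: ATP exposure 15 min at 22 °C before imaging.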
row,Sequence,switch fluorescence ratio
1,GCTCATTTTG,1
2,GCTCCCGAAA,3.15
3,GCTCCCGATG,1.93
4,GCTCCGGACG,1.46
5,GCTCCGGAGA,1.16
6,GCTCCGTCCG,1.3
7,GCTCCTAGGA,1
8,GCTCCTCCA,1.38
9,GCTCCTGTTG,0.977
10,GCTCCTTGC,1.16
11,GCTCCTTTAG,1.04
12,GCTCGATACT,1.23
13,GCTCGCCACA,0.997
14,GCTCGGAGCA,1.06
15,GCTCGGCCCT,0.98
16,GCTCGTAAGG,0.95
17,GCTCGTGTA,1.01
18,GCTCGTGTTT,0.958
19,GCTCTAGATA,1.17
20,GCTCTAGGCA,0.972
21,GCTCTAGTAT,1
22,GCTCTCATTA,1
23,GCTCTGGGCA,1
24,GCTCTGTGGC,1.03
25,GCTCTTCTGA,1.13
26,GCTCTTGTTG,1.01

row,Sequence,switch fluorescence ratio
1,GCTGAAGGAC,0.966
2,GCTGAAGTT,0.999
3,GCTGAGTGGT,0.985
4,GCTGATAACT,0.993
5,GCTGATCCGT,1.09
6,GCTGCAAAGA,1.02
7,GCTGCGAGCT,1.05
8,GCTGCGCCGC,1.04
9,GCTGCGTCTT,1
10,GCTGCTGTGT,1.01
11,GCTGCTTTAT,0.972
12,GCTGGAAAA,1.17
13,GCTGGAAT,1.01
14,GCTGGAGCGA,1.45
15,GCTGGATGGA,0.983
16,GCTGGCCCGT,0.96
17,GCTGGGAGCA,0.978
18,GCTGGGTCCC,1.02
19,GCTGGTCAAA,0.959
20,GCTGGTGTCA,0.994
21,GCTGTAGTAG,1.03
22,GCTGTATGGG,1
23,GCTGTCAGAT,1.02
24,GCTGTCGGAT,1
25,GCTGTGACGC,1.02
26,GCTGTGGAG,1.04

row,Sequence,switch fluorescence ratio
1,GCTGTGGAGC,1.01
2,GCTGTGTGCG,1.02
3,GCTGTTAAAA,0.962
4,GCTGTTATTG,0.998
5,GCTGTTGACA,0.956
6,GCTTAAACCT,2.48
7,GCTTAAATGC,1.05
8,GCTTACACGG,1.06
9,GCTTACAG,1.02
10,GCTTAGGCCT,1.03
11,GCTTAGTTCT,0.979
12,GCTTATAGCT,0.982
13,GCTTATGCAG,0.969
14,GCTTCAAGGG,0.934
15,GCTTCCATGA,0.982
16,GCTTCCCCCA,1.91
17,GCTTCCGGCG,1.95
18,GCTTCGCAAA,2.2
19,GCTTCGTACA,1.09
20,GCTTGAGGTG,1.04
21,GCTTGGCCGG,0.987
22,GCTTGGGCTG,0.999
23,GCTTGTGAAT,1.02
24,GCTTTAGATG,0.984
25,GCTTTAGTCT,1.04
26,GCTTTAGTTG,0.996

row,Sequence,switch fluorescence ratio
1,GCTTTCTCTA,0.992
2,GCTTTCTTTT,1.01
3,GCTTTGCGTT,0.997
4,GCTTTGGTGG,0.991
5,GCTTTGTCCT,1.04
6,GCTTTTCACC,0.97
7,GCTTTTCTTA,0.998
8,GCTTTTGATA,0.975
9,GCTTTTTTAT,1.03
10,GCTTTTTTC,0.973
11,GGAAAAGTT,0.998
12,GGAAACCCGT,1.06
13,GGAAAGACGG,1.06
14,GGAAAGTGTA,1.01
15,GGAAATTATG,0.979
16,GGAACAGCTG,1.01
17,GGAACATTAA,0.994
18,GGAACATTGG,0.998
19,GGAACTCGAA,0.959
20,GGAACTGCTA,1.06
21,GGAAGAAGTT,1.04
22,GGAAGAGAAA,1.03
23,GGAAGCAGGC,0.522
24,GGAAGGCATT,1.01
25,GGAAGGCTAG,0.954
26,GGAAGTTGTG,0.964

row,Sequence,switch fluorescence ratio
1,GGAATAACGG,1.09
2,GGAATAGGCG,1.02
3,GGAATCTCTG,0.973
4,GGAATGCGAG,1.16
5,GGAATTTGTA,1.04
6,GGACAAGTGG,1.28
7,GGACATCAGT,0.972
8,GGACCACGGT,1.01
9,GGACCACTGT,1.04
10,GGACCATAGA,1.01
11,GGACCTAGTT,1.02
12,GGACCTGGCC,0.998
13,GGACGCCTAC,1.68
14,GGACGGCATG,1
15,GGACGGGATG,0.979
16,GGACGGGTTG,0.976
17,GGACTAGG,1.03
18,GGACTAGGAT,1.02
19,GGACTGCCGG,0.974
20,GGACTTGAAG,1.07
21,GGACTTTTG,1.02
22,GGAGAAAGTA,0.974
23,GGAGAATAGA,1.03
24,GGAGACCTGC,0.924
25,GGAGACGACA,0.987
26,GGAGAGCCCG,0.98

row,Sequence,switch fluorescence ratio
1,GGAGAGCGGG,0.982
2,GGAGAGCTGG,0.979
3,GGAGATGTAC,1.25
4,GGAGCACTG,1.22
5,GGAGCAGAAT,1.42
6,GGAGCAGATG,1.4
7,GGAGCAGTGG,1.58
8,GGAGCCGCGA,1.18
9,GGAGCCTAGA,0.97
10,GGAGCGCGGT,1.02
11,GGAGCGGAG,1.03
12,GGAGCTTGTA,0.907
13,GGAGGAATTC,1.31
14,GGAGGAGCAA,2.27
15,GGAGGCACCC,1.04
16,GGAGGGCCAA,0.985
17,GGAGGTCAAC,1.01
18,GGAGGTCAAG,0.992
19,GGAGGTCGGC,1.01
20,GGAGTAAACG,1.12
21,GGAGTAACGG,0.976
22,GGAGTACATC,1.02
23,GGAGTACTGC,1.13
24,GGAGTAGCAA,1.53
25,GGAGTAGTTG,1.01
26,GGAGTATGTC,0.905

row,Sequence,switch fluorescence ratio
1,GGAGTCTGCT,1
2,GGAGTGGCAT,0.967
3,GGAGTGGCTG,0.951
4,GGAGTTGAGT,0.994
5,GGATAACGG,0.965
6,GGATAAGCAA,1.47
7,GGATACCGGG,0.987
8,GGATACTCTT,1
9,GGATAGGGCA,1.04
10,GGATATAGCA,1.02
11,GGATATATAG,0.978
12,GGATATATTT,0.981
13,GGATCCGCGC,3.65
14,GGATCGACCA,0.984
15,GGATCGCGGT,1.06
16,GGATGAACGC,1.01
17,GGATGACGG,0.949
18,GGATGCCGG,1.11
19,GGATGTAACC,1.03
20,GGATGTCCGT,1.07
21,GGATGTCCTC,0.972
22,GGATGTCGCT,1.01
23,GGATGTGTCC,1.02
24,GGATGTTGGG,0.997
25,GGATTGGGAG,1.04
26,GGATTGGGTC,0.948

row,Sequence,switch fluorescence ratio
1,GGATTTACAC,1.02
2,GGATTTCCCT,0.968
3,GGATTTGCTC,0.976
4,GGATTTTACA,0.988
5,GGATTTTGAC,1.02
6,GGCAAACCG,1.03
7,GGCAAATCAG,1.02
8,GGCAACACTG,0.999
9,GGCAACGCTC,1.05
10,GGCAACTCGG,0.95
11,GGCAATTGGT,1
12,GGCACAGAT,1.03
13,GGCACAGGAG,1.18
14,GGCACAGTTG,1
15,GGCACCAGCG,1.04
16,GGCACCAGCT,0.974
17,GGCACCCAGC,1.02
18,GGCACCCCTG,0.979
19,GGCACCCGAA,1.01
